Reference: the supplement of paper PMC8728848
The list shows a part of the results.

What was measured:
Assay in all cases: glycan array binding signal (z-score within array); higher = stronger binding
Conditions in all cases: glycan notation: IUPAC condensed, linker removed
GlcNAc(b1-6)GalNAc = target: GlcNAc(b1-6)GalNAc
Procedure, shortened: (§1)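 The binding signal is a Z-score computed within each array and averaged over linkers. Arrays of the same protein sequence at different concentrations or buffers were also averaged together. Data originate from 3228 arrays in the Consortium for Functional Glycomics database, kept only where the protein sequence was available.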

GlcNAc3Prop(b1-4)GlcNAc = target: GlcNAc3Prop(b1-4)GlcNAc
Procedure, shortened: as §1

[1] = target: GlcNAc6S(b1-3)Gal(b1-4)GlcNAc
Procedure, shortened: as §1

Kdn(a2-3)Gal(b1-3)GalNAc = target: Kdn(a2-3)Gal(b1-3)GalNAc
Procedure, shortened: as §1

Kdn(a2-3)Gal(b1-3)GlcNAc = target: Kdn(a2-3)Gal(b1-3)GlcNAc
Procedure, shortened: as §1

Kdn(a2-3)Gal(b1-4)Glc = target: Kdn(a2-3)Gal(b1-4)Glc
Procedure, shortened: as §1

Kdn(a2-3)Gal(b1-4)GlcNAc = target: Kdn(a2-3)Gal(b1-4)GlcNAc
Procedure, shortened: as §1

[2] = target: Kdn(a2-3)Gal(b1-4)[Fuc(a1-3)]GlcNAc
Procedure, shortened: as §1

Kdn(a2-6)Gal(b1-4)GlcNAc = target: Kdn(a2-6)Gal(b1-4)GlcNAc
Procedure, shortened: as §1

[3] = target: Man(a1-2)Man(a1-2)Man(a1-3)Man
Procedure, shortened: as §1

[4] = target: Man(a1-2)Man(a1-2)Man(a1-6)[Man(a1-3)]Man
Procedure, shortened: as §1

Man(a1-2)Man(a1-3)Man = target: Man(a1-2)Man(a1-3)Man
Procedure, shortened: as §1

[5] = target: Man(a1-2)Man(a1-3)[Man(a1-2)Man(a1-6)]Man
Procedure, shortened: as §1

[6] = target: Man(a1-2)Man(a1-3)[Man(a1-2)Man(a1-6)]Man(a1-6)[Man(a1-2)Man(a1-2)Man(a1-3)]Man
Procedure, shortened: as §1

[7] = target: Man(a1-2)Man(a1-3)[Man(a1-2)Man(a1-6)]Man(a1-6)[Man(a1-2)Man(a1-2)Man(a1-3)]Man(b1-4)GlcNAc(b1-4)GlcNAc
Procedure, shortened: as §1

[8] = target: Man(a1-2)Man(a1-3)[Man(a1-6)]Man(a1-6)[Man(a1-2)Man(a1-3)]Man(b1-4)GlcNAc(b1-4)GlcNAc
Procedure, shortened: as §1

[9] = target: Man(a1-2)Man(a1-6)[Man(a1-3)]Man(a1-6)[Man(a1-2)Man(a1-2)Man(a1-3)]Man
Procedure, shortened: as §1

[10] = target: Man(a1-2)Man(a1-6)[Man(a1-3)]Man(a1-6)[Man(a1-2)Man(a1-2)Man(a1-3)]Man(b1-4)GlcNAc(b1-4)GlcNAc
Procedure, shortened: as §1

Man(a1-3)[Man(a1-6)]Man = target: Man(a1-3)[Man(a1-6)]Man
Procedure, shortened: as §1

[11] = target: Man(a1-3)[Man(a1-6)]Man(a1-6)[Man(a1-2)Man(a1-3)]Man(b1-4)GlcNAc(b1-4)GlcNAc
Procedure, shortened: as §1

[12] = target: Man(a1-3)[Man(a1-6)]Man(a1-6)[Man(a1-3)]Man
Procedure, shortened: as §1

[13] = target: Man(a1-3)[Man(a1-6)]Man(a1-6)[Man(a1-3)]Man(b1-4)GlcNAc(b1-4)GlcNAc
Procedure, shortened: as §1

[14] = target: Man(a1-3)[Man(a1-6)]Man(b1-4)GlcNAc(b1-4)GlcNAc
Procedure, shortened: as §1

Man(a1-6)Man = target: Man(a1-6)Man
Procedure, shortened: as §1

Man(b1-4)GlcNAc = target: Man(b1-4)GlcNAc
Procedure, shortened: as §1

Neu5Ac(a2-3)Gal = target: Neu5Ac(a2-3)Gal
Procedure, shortened: as §1

[15] = target: Neu5Ac(a2-3)Gal(b1-3)GalNAc
Procedure, shortened: as §1

[16] = target: Neu5Ac(a2-3)Gal(b1-3)GalNAc(b1-3)Gal(a1-4)Gal(b1-4)Glc
Procedure, shortened: as §1

[17] = target: Neu5Ac(a2-3)Gal(b1-3)GalNAc(b1-4)[Neu5Ac(a2-3)]Gal(b1-4)Glc
Procedure, shortened: as §1

[18] = target: Neu5Ac(a2-3)Gal(b1-3)GalNAc(b1-4)[Neu5Ac(a2-8)Neu5Ac(a2-3)]Gal(b1-4)Glc
Procedure, shortened: as §1

[19] = target: Neu5Ac(a2-3)Gal(b1-3)GalNAc6S
Procedure, shortened: as §1

[20] = target: Neu5Ac(a2-3)Gal(b1-3)GlcNAc
Procedure, shortened: as §1

[21] = target: Neu5Ac(a2-3)Gal(b1-3)GlcNAc(b1-3)Gal(b1-3)GlcNAc
Procedure, shortened: as §1

[22] = target: Neu5Ac(a2-3)Gal(b1-3)GlcNAc(b1-3)Gal(b1-4)GlcNAc
Procedure, shortened: as §1

[23] = target: Neu5Ac(a2-3)Gal(b1-3)GlcNAc(b1-3)GalNAc
Procedure, shortened: as §1

[24] = target: Neu5Ac(a2-3)Gal(b1-3)GlcNAc6S
Procedure, shortened: as §1

[25] = target: Neu5Ac(a2-3)Gal(b1-3)[Fuc(a1-4)]GlcNAc
Procedure, shortened: as §1

B1: SCA (Schizophyllum commune) (protein)
chain: MGIDQGVYLITNAGSGTAATLKDGYVKGWERIKGKEQLNQLWFVKSVKTSASDPGYAAFNLATNKVLDLEKGLADRGTPILGWDYHEGDNQHWVIKKQADGKYYKIQSVKTQTFVDLNNGGKDNGTKIQGWVGSWDETNSHQRWVFNQFSATGSRIKSILDTHPKIHGKVIVEWPDRIYFTPDQYIFEAIWAKTGLADIKPRDPLFQSEAYEKVFKGWVVSRAQEIIKVDGFDILVGSLSLVEKSTQKIKVLDVSVRTSDDKSPDLSQIVFFDPESGRTLVDIPEGYEVNSVII
- glycan array binding signal (z-score) (GlcNAc(b1-6)GalNAc): -0.162
- glycan array binding signal (z-score) (GlcNAc3Prop(b1-4)GlcNAc): -0.159
- glycan array binding signal (z-score) [1]: -0.161
- glycan array binding signal (z-score) (Kdn(a2-3)Gal(b1-3)GalNAc): -0.154
- glycan array binding signal (z-score) (Kdn(a2-3)Gal(b1-3)GlcNAc): -0.163
- glycan array binding signal (z-score) (Kdn(a2-3)Gal(b1-4)Glc): -0.152
- glycan array binding signal (z-score) (Kdn(a2-3)Gal(b1-4)GlcNAc): -0.163
- glycan array binding signal (z-score) [2]: -0.157
- glycan array binding signal (z-score) (Kdn(a2-6)Gal(b1-4)GlcNAc): -0.162
- glycan array binding signal (z-score) [3]: -0.162
- glycan array binding signal (z-score) [4]: -0.159
- glycan array binding signal (z-score) (Man(a1-2)Man(a1-3)Man): -0.157
- glycan array binding signal (z-score) [5]: -0.16
- glycan array binding signal (z-score) [6]: -0.159
- glycan array binding signal (z-score) [7]: -0.163
- glycan array binding signal (z-score) [8]: -0.16
- glycan array binding signal (z-score) [9]: -0.156
- glycan array binding signal (z-score) [10]: -0.163
- glycan array binding signal (z-score) (Man(a1-3)[Man(a1-6)]Man): -0.16
- glycan array binding signal (z-score) [11]: -0.158
- glycan array binding signal (z-score) [12]: -0.162
- glycan array binding signal (z-score) [13]: -0.164
- glycan array binding signal (z-score) [14]: -0.162
- glycan array binding signal (z-score) (Man(a1-6)Man): -0.162
- glycan array binding signal (z-score) (Man(b1-4)GlcNAc): -0.161
- glycan array binding signal (z-score) (Neu5Ac(a2-3)Gal): -0.147
- glycan array binding signal (z-score) [15]: -0.136
- glycan array binding signal (z-score) [16]: -0.155
- glycan array binding signal (z-score) [17]: -0.15
- glycan array binding signal (z-score) [18]: -0.16
- glycan array binding signal (z-score) [19]: -0.16
- glycan array binding signal (z-score) [20]: -0.163
- glycan array binding signal (z-score) [21]: -0.162
- glycan array binding signal (z-score) [22]: -0.155
- glycan array binding signal (z-score) [23]: -0.159
- glycan array binding signal (z-score) [24]: -0.162
- glycan array binding signal (z-score) [25]: -0.16
